Laboratory results as given in PMC4336329 (PLoS ONE, 2015).
Out of some 310,000 compounds screened, about 14,000 (4.5%) showed an effect of 50% or more. The effect is printed as a negative number. The list shows a part of the results.

biological target: human ether-à-go-go-related gene (hERG) potassium channel (human, UniProt Q12809); test: primary screen, population patch clamp on CHO cells stably expressing hERG
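Further: peak tail current of the secondary pulse compared with the same well before compound.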

Chain of human ether-à-go-go-related gene (hERG) potassium channel (Q12809 whole entry, looked up): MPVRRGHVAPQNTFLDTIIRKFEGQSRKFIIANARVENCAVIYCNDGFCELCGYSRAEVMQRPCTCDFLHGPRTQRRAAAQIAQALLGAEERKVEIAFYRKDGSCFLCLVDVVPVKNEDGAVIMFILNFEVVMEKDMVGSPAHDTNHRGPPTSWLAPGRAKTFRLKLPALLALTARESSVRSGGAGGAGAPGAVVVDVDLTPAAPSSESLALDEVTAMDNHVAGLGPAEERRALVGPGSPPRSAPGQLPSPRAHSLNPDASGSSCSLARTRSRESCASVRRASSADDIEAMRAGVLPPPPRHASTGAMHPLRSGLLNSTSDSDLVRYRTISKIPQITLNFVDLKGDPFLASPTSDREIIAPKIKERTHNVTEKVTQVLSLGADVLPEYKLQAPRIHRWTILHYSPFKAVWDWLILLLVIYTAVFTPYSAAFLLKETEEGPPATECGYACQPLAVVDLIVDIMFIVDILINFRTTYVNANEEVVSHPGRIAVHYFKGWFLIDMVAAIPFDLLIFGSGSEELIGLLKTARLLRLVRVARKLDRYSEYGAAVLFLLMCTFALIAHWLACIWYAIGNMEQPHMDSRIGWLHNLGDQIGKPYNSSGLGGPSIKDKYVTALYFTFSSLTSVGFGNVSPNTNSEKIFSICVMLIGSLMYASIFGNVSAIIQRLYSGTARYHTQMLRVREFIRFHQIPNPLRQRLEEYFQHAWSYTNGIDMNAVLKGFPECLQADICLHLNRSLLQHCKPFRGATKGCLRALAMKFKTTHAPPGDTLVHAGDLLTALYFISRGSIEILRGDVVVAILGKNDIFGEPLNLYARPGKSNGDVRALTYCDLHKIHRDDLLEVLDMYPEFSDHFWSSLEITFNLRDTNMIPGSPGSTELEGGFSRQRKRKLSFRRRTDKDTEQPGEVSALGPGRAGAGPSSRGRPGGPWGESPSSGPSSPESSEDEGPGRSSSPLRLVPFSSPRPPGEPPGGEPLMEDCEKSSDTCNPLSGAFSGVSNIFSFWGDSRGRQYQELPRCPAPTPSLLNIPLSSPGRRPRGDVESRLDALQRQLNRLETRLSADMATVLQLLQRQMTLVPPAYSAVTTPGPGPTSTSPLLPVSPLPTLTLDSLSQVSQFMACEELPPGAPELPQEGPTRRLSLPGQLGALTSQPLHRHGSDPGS

Row | Structure (SMILES) | hERG current change (%, negative = inhibition) at 10uM
1 | O=C(Nc1nnc(-c2ccc3c(c2)OCCO3)o1)C1CCCCC1 | 21.3%
2 | CCNC(=S)N1CCC(c2nc3ccccc3s2)CC1 | -25.7%
3 | Cc1cc2c(c(=O)n1CCN(C)C)C(c1ccc(Br)cc1)C(C#N)=C(N)O2 (centres unmarked) | -58.5%
4 | CC(C)NC(=O)Cn1cc(C(=O)COc2ccccc2)c2ccccc21 | 14%
5 | COc1ccc(/C=N/NC(=O)CNC(=O)COc2ccccc2)cc1 | -4.02%
6 | COc1ccccc1N1C(=O)c2cccc3c(N(C)CCO)ccc(c23)C1=O | 5.75%
7 | Cc1cc(OCC(=O)Nc2ccc(S(=O)(=O)N3CCN(C)CC3)cc2)ccc1Br | -22.3%
8 | O=C(Nc1ccc(Cl)cc1)c1cc2nc(C3CC3)cc(C(F)(F)F)n2n1 | 4.16%
9 | CCN(CC)CCn1c(SCC(=O)Nc2ccc3c(c2)CCC3)nc2ccccc2c1=O | -83%
10 | CCOc1ccc(Nc2nc(Nc3ccc(O)cc3)nc(C)c2[N+](=O)[O-])cc1 | 8.07%
11 | Cc1ccc(NS(=O)(=O)c2ccc(N/N=C/c3ccccc3OCC(=O)O)c([N+](=O)[O-])c2)c(C)c1 | 6.96%
12 | CC(C)(C)OC(=O)N1CCC(C(=O)N[C@@H](Cc2ccccc2)C(=O)O)CC1 | 4.88%
13 | CCNC(=S)N(Cc1cc2cccc(C)c2[nH]c1=O)C1CCCC1 | 2.25%
14 | O=C(Nc1nnc(-c2ccncc2)o1)c1ccccc1 | 8.79%
15 | CCCCCCn1c(O)c(C=NCCCn2ccnc2)c(=O)[nH]c1=O | -16.3%
16 | CCCCn1nc2cc(C(=O)NCc3ccccc3)ccc2c1OCC | -14.1%
17 | CCCCNc1cc(=O)n(C)c(=O)n1C | 4.02%
18 | CC1Cc2ccccc2N1Cc1cc(=O)c(OCC(=O)Nc2ccccc2)co1 (centres unmarked) | -8.75%
19 | COC(=O)[C@H]1Cc2c([nH]c3ccccc23)[C@H](c2ccccc2)N1 | 5.76%
20 | COc1ccc(C(=O)NC(=S)NNC(=O)c2ccc(NC(=O)C(C)C)cc2)cc1 | 26.2%
21 | CC(Oc1ccccc1Cl)C(=O)Nc1ccc(S(=O)(=O)Nc2nccs2)cc1 (centres unmarked) | -0.857%
22 | CC(C)=CC1C=C(C)C(C)C2C(=O)NNC(=O)C12 (centres unmarked) | 14.9%
23 | O=C(NCC1CCCN(Cc2cccc(F)c2)C1)c1cccc2ccccc12 (centres unmarked) | -17.6%
24 | CCCCc1nc(SCC(=O)Nc2ncccn2)n[nH]1 | 5.71%
25 | CCOC(Cn1c(SCc2cc(C(C)=O)ccc2OC)nc2ccccc2c1=O)OCC | 3.59%
26 | CN(C)S(=O)(=O)c1cccc(NS(=O)(=O)c2ccc(Cl)s2)c1 | 2.17%
27 | COc1ccc(NC(=O)COC(=O)c2cc(Cl)ccc2O)cc1S(=O)(=O)N1CCCCC1 | 10.5%

Row | Structure (SMILES) | hERG current change (%, negative = inhibition) at 10uM
28 | O=C(CN1C(=O)COc2ccc(S(=O)(=O)N3CCCCC3)cc21)NCc1ccccc1Cl | 22.7%
29 | O=C(O)CNC1c2ccccc2CSc2ccccc21 (centres unmarked) | 19.5%
30 | COc1cccc(CNC(=O)Cn2ccc3cc(S(=O)(=O)N4CCC(C)CC4)ccc32)c1 | -23.7%
31 | CCc1nnc(NC(=O)CSc2nnc(Cc3ccccc3)n2-c2ccccc2)s1 | -3.2%
32 | O=C(/C=C/c1ccccc1[N+](=O)[O-])c1ccc(F)cc1 | 3.18%
33 | COc1ccc(CCNC(=O)c2cc(-c3ccc(C)cc3O)n[nH]2)cc1OC | 5.19%
34 | CCOc1ccc2nc(N3C(=O)/C(=C/c4ccccc4)NC3=S)sc2c1 | 18.9%
35 | CCOc1cc(CNc2ccc(S(N)(=O)=O)cc2)ccc1OCC(=O)NC(C)(C)C | 21.4%
36 | O=C(CCCOc1ccc(Cl)cc1Cl)N1CCN(c2ccccn2)CC1 | -27.1%
37 | CCc1ccc(CN(C)C(=O)C2CCC(=O)N(CCc3ccc(OC)cc3)C2)nc1 (centres unmarked) | -79.9%
38 | CCNc1nc(NCC)n2c(SCC(=O)Nc3ccc(F)cc3[N+](=O)[O-])nnc2n1 | -18.8%
39 | COc1ccccc1N(C(=O)CNC(=O)c1ccco1)C(C(=O)NCC1CCCO1)c1ccccc1 (centres unmarked) | 8.04%
40 | O=C(Cc1ccc([N+](=O)[O-])cc1)N/N=C/c1cccnc1 | -9.63%
41 | CC(=O)N1CCN(S(=O)(=O)c2cccc(C(=O)Nc3nccs3)c2)CC1 | 3.42%
42 | Nc1ccc(N=Nc2ccccc2)c2ccccc12 | 22.4%
43 | C/C(=N\NC(=O)C1(C)CC1(Br)Br)c1ccc(NC(=O)c2ccc(C)o2)cc1 (centres unmarked) | -8.92%
44 | O=C(Nc1ccccc1)C1=C[C@@H](C2CCCCC2)C[C@@H](OCc2ccc(CO)cc2)O1 | 10.3%
45 | Cc1ccc(CSCC(=O)N(C)CC(=O)Nc2ccc(Cl)c(Cl)c2)cc1 | 7.19%
46 | COc1ccccc1C(=O)NCCCNc1ccc([N+](=O)[O-])cc1 | -19.2%
47 | O=C(NCC1CCCO1)c1ccccc1NC(=O)c1cccc2ccccc12 (centres unmarked) | -21.5%
48 | CC1C(=O)N2CCCc3cc(S(=O)(=O)N4CCC(C(N)=O)CC4)cc1c32 (centres unmarked) | 7.24%
49 | COC(=O)/C=C1\N/C(=N/c2nc(C)c3cc(OC)ccc3n2)NC1=O | 6.39%
50 | CC(C)C12CN(C(=O)c3ccccc3[N+](=O)[O-])CC(C(C)C)(CN(C(=O)c3ccccc3[N+](=O)[O-])C1)C2=O | 1.65%
51 | COC(=O)c1c(NC(=O)C2CCC2)sc(C(=O)N(C)C)c1C | 4%
52 | CCOC(=O)c1c(NC(=O)CCS(=O)(=O)c2ccccc2)sc2c1CCN(C(C)C)C2.Cl | -72.4%
53 | CCN1C(=O)[C@H]2[C@@H](c3ccc(-c4ccc(OC)cc4)cc3)N[C@@](CC(C)C)(C(=O)OC)[C@H]2C1=O.O=C(O)C(F)(F)F | 11.9%
